# Results published in PubChem BioAssay (Tox21).
# Where “and” joins values, the source holds several entries; their conditions need not be identical. Equal entries are not always repeated. This list was built around the results that the source calls inconclusive (neither active nor inactive); the mix of calls is not that of the screen. For some of these results: Potencies beside an inconclusive call are fits to weak or partial responses and may not hold up. Some compounds were tested as several samples or in several runs, with calls that do not always agree. Calls of active or inactive are those of the source. Unless noted, calls follow the shape of the dose curve; as a rule, active = well fitted curve in the direction sought with a large enough effect in the repeat runs; inconclusive = weak or mixed curves; inactive = no such curve, though single readings can be large; an effect the other way counts as inactive or inconclusive.
# What was measured:
# [1] = qHTS assay to identify aromatase inhibitors - cell viability counter screen (AID 743084); details: MCF-7 aro ERE viability, CellTiter-Fluor, 24 h; activity change, negative = cytotoxicity: at 70.3 µM (top of the series);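 also: cells stimulated with testosterone during compound exposure; nearly all actives have a fitted effect of over 55% in size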; as to activity change, negative = cytotoxicity: % is scaled to controls: 0 for no effect and ±100 for the full control effect
# [2] = biological target: Aryl hydrocarbon receptor (Homo sapiens) (UniProt P35869); assay: qHTS assay to identify small molecule that activate the aryl hydrocarbon receptor (AhR) signaling pathway (AID 743085); also: nearly all actives have a fitted effect of over 15% in size;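 as to activation: HG2L7.5c1 human HepG2 liver cells with stably integrated DRE-driven firefly reporter; % is scaled to controls: 0 for no effect and ±100 for the full control effect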
# UniProt P35869, sequence (P35869 whole entry, looked up): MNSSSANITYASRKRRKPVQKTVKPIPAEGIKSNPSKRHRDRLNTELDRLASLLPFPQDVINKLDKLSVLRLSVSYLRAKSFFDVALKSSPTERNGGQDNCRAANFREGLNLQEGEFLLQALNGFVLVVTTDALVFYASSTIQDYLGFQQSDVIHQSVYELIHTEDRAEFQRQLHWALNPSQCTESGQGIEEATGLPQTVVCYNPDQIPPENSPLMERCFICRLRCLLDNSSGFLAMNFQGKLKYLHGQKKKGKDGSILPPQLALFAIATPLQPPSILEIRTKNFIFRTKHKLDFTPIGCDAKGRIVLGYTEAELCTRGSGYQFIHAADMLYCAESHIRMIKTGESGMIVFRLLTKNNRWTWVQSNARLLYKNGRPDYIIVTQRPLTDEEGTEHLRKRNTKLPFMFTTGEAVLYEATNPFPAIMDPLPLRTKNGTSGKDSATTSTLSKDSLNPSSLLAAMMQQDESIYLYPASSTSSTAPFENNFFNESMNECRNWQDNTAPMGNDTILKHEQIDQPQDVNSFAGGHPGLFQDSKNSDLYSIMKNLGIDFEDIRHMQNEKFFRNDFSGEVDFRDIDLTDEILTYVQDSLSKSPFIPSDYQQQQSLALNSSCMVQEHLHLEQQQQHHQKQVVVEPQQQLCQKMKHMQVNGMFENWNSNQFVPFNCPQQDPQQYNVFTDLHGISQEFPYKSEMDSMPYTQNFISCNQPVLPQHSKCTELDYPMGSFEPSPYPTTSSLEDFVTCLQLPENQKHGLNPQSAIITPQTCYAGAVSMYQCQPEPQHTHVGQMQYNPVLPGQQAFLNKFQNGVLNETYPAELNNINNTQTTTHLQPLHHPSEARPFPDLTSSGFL
# Outline: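 HepG2 cells (HG2L7.5c1) stably carrying a firefly luciferase reporter driven by 20 dioxin responsive elements were exposed to compound for 24 h at 37C after a 5 h settling period; luminescence rise (ONE-Glo) indicated activation.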
# [3] = biological target: Peroxisome proliferator-activated receptor gamma (Homo sapiens) (UniProt P37231); assay: qHTS assay to identify small molecule antagonists of the peroxisome proliferator-activated receptor gamma (PPARg) signaling pathway (AID 743191; calls by dose curve; also: nearly all actives have a fitted effect of over 30% in size; as to ratio activity, negative = inhibition: % is scaled to controls: 0 for no effect and ±100 for the full control effect); details: HEK293H PPARg-UAS-bla, beta-lactamase ratio, antagonist, 17 h; ratio activity, negative = inhibition: at 62.6 µM (top of the series) unless noted
# UniProt P37231, sequence (P37231 whole entry, looked up): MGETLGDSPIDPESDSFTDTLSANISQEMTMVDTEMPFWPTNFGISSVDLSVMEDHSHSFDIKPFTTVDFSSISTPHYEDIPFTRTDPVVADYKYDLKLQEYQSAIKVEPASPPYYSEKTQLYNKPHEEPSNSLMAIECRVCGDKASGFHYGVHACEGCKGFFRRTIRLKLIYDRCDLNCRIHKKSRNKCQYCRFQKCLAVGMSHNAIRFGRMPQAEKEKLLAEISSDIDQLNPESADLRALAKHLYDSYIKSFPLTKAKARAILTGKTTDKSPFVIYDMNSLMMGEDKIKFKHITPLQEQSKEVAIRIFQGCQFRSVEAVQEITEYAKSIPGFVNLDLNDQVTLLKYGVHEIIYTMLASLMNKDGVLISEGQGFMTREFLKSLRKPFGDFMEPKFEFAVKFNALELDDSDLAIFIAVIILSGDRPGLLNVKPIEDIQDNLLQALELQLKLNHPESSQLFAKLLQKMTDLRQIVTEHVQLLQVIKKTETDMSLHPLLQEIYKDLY
# Outline: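 GeneBLAzer PPARg UAS-bla HEK293H cells, 5 h post-plating, exposed to compounds 17 h at 37C. LiveBLAzer B/G FRET substrate added for 1 h at room temperature; beta-lactamase reporter read by fluorescence intensity.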
# [4] = qHTS assay for small molecule agonists of the antioxidant response element (ARE) signaling pathway (AID 743202; active = well fitted activation curve with a large enough effect in the signal ratio in the repeat runs, not every such curve was filed as active; inconclusive = weak or mixed curves, or effect the other way; inactive = no such curve, though single readings can be large or run the other way; the % refers to the signal ratio); details: HepG2 ARE-bla reporter, beta-lactamase FRET, 16 h; activation: at 73.3 µM (top of the series) unless noted
# Outline: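 ARE-bla HepG2 cells (beta-lactamase reporter under the antioxidant response element), plated 5 hours, then exposed to compounds 16 hours at 37 C. LiveBLAzer B/G FRET substrate added for 2 hours at room temperature; fluorescence intensity read.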
# [5] = biological target: Peroxisome proliferator-activated receptor delta (Homo sapiens) (UniProt Q03181); assay: qHTS assay to identify small molecule agonists of the peroxisome proliferator-activated receptor delta (PPARd) signaling pathway (AID 743212; calls by dose curve); details: HEK293H PPARd-UAS-bla, beta-lactamase FRET ratio, 17 h; activation: at 62.6 µM (top of the series) unless noted
# UniProt Q03181, sequence (Q03181 whole entry, looked up): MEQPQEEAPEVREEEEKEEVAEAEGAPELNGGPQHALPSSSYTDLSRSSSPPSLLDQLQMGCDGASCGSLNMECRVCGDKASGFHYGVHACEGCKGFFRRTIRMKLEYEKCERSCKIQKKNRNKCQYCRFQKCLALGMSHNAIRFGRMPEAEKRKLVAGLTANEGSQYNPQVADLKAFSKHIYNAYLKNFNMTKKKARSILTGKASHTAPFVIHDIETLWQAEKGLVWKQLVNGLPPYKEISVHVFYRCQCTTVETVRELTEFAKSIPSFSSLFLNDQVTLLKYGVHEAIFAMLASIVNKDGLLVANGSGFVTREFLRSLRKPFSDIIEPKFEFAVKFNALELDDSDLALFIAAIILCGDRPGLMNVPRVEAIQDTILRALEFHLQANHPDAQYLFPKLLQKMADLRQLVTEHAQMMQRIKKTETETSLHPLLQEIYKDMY
# Outline: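 GeneBLAzer UAS-bla HEK293H cells carrying a PPARδ construct were exposed to compounds at 37 °C. Beta-lactamase activity was read by FRET fluorescence after 2 h at room temperature with LiveBLAzer B/G substrate.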
# [6] = biological target: Bile acid receptor (Homo sapiens) (UniProt Q96RI1); assay: qHTS assay to identify small molecule antagonists of the farnesoid-X-receptor (FXR) signaling pathway (AID 743217; active = well fitted inhibition curve with a large enough effect in the signal ratio in the repeat runs, not every such curve was filed as active; inconclusive = weak or mixed curves, or effect the other way; inactive = no such curve, though single readings can be large or run the other way; the % refers to the signal ratio; as to activity change, negative = inhibition: % is scaled to controls: 0 for no effect and ±100 for the full control effect); details: HEK293T FXR-UAS-bla, beta-lactamase ratio, CDCA-stimulated, 16 h; activity change, negative = inhibition: at 62.6 µM (top of the series) unless noted
# UniProt Q96RI1, sequence (Q96RI1 whole entry, looked up): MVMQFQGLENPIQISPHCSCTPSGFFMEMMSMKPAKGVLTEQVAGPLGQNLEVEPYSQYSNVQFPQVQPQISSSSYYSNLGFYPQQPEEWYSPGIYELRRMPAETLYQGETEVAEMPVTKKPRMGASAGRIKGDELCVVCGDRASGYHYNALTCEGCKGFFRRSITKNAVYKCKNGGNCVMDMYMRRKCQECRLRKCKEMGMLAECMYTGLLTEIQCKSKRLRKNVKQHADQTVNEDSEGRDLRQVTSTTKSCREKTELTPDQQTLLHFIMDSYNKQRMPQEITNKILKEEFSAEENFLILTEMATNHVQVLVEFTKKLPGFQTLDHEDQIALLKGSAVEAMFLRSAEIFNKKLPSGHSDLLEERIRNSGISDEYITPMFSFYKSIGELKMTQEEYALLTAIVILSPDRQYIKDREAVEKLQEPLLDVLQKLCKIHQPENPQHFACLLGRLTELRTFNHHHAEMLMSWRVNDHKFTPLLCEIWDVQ
# Outline: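 In this cell-based antagonist screen, inhibition of CDCA-driven (50 uM final) UAS-beta-lactamase expression in HEK 293T cells was measured by FRET fluorescence following 16 h compound exposure at 37 °C.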
# [7] = biological target: Vitamin D3 receptor (Homo sapiens) (UniProt P11473); assay: qHTS assay to identify small molecule agonists of the vitamin D receptor (VDR) signaling pathway (AID 743222; calls by dose curve); details: HEK293T VDR-UAS-bla, beta-lactamase FRET ratio, 16 h; activation: at 63.5 µM (top of the series) unless noted
# UniProt P11473, sequence (P11473 whole entry, looked up): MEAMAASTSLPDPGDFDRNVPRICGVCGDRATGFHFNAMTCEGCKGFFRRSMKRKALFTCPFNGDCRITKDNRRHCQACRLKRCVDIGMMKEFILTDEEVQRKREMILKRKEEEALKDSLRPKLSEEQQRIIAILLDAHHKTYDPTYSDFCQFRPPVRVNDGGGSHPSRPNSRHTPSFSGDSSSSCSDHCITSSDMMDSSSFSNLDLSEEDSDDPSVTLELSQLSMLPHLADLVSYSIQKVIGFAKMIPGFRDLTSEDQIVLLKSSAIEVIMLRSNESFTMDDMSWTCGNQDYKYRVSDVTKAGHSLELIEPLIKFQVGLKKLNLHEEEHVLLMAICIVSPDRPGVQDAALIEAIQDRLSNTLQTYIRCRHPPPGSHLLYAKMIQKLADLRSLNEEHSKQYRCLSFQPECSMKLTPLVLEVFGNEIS
# Outline: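 VDR-bla cells were seeded, left 4 h, treated with compounds in DMSO for 16 h, incubated 2 h at RT with B/G FRET substrate, and read for fluorescence.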
# [8] = qHTS assay to identify small molecule that activate the aryl hydrocarbon receptor (AhR) signaling pathway - cell viability counter screen (AID 743086); also: nearly all actives have a fitted effect of over 45% in size
# Outline: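 HepG2-AhR-luc (HG2L7.5c1) cells, 4000/well, treated 24 h at 37 C with compound; viability measured as CellTiter-Fluor fluorescence after 30 min in the same wells as the luciferase read.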
# [9] = biological target: Peroxisome proliferator-activated receptor gamma (Homo sapiens) (UniProt P37231); assay: qHTS assay to identify small molecule agonists of the peroxisome proliferator-activated receptor gamma (PPARg) signaling pathway (AID 743094; active = well fitted activation curve with a large enough effect in the signal ratio in the repeat runs, not every such curve was filed as active; inconclusive = weak or mixed curves, or effect the other way; inactive = no such curve, though single readings can be large or run the other way; the % refers to the signal ratio); details: HEK293H PPARg-UAS-bla, beta-lactamase FRET ratio, 17 h; activation: at 57 µM (top of the series) unless noted
# Outline: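 Following 5 h plating at 37C, PPARg-bla HEK293H cells receive compound or DMSO for 17 h; fluorescence intensity is recorded after LiveBLAzer B/G loading for 1 h at room temperature.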
# [10] = qHTS assay for small molecule agonists of the antioxidant response element (ARE) signaling pathway - cell viability counter screen (AID 743203; calls by dose curve; also: nearly all actives have a fitted effect of over 55% in size); details: ARE-bla HepG2 viability, CellTiter-Glo luminescence, 16 h; viability change, negative = cytotoxic: at 73.3 µM (top of the series)
# Outline: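 Compounds in DMSO were pinned onto ARE-bla HepG2 cells plated 5 hrs earlier at 2,000 cells/well. Sixteen hours later at 37C/5% CO2, CellTiter-Glo was added and luminescence measured after 30 min at room temperature.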
# [11] = qHTS assay for small molecule activators of the heat shock response signaling pathway - cell viability counter screen (AID 743209); details: HSE-bla HeLa viability, CellTiter-Glo luminescence, 5 h; activity change, negative = cytotoxicity: at 62.6 µM (top of the series); also: nearly all actives have a fitted effect of over 50% in size
# Outline: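 Counter screen for cytotoxicity in HeLa HSE-bla reporter cells. Treatment was 5 h at 37 C; viability was detected by luminescent ATP assay (CellTiter-Glo) in the same wells as the beta-lactamase read.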
# [12] = qHTS assay for small molecule activators of the heat shock response signaling pathway (AID 743210; active = well fitted activation curve with a large enough effect in the signal ratio in the repeat runs, with a control signal flat, not every such curve was filed as active; inconclusive = weak or mixed curves; the % refers to the signal ratio); details: HeLa HSE-bla reporter, beta-lactamase ratio, 5 h; activation: at 62.6 µM (top of the series)
# Outline: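 HSE-bla HeLa cells (beta-lactamase reporter under heat shock response elements), plated overnight, then exposed to compounds 5 h at 37 C; LiveBLAzer B/G FRET substrate added, 2.5 h at room temperature, fluorescence intensity read.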
# [13] = qHTS assay to identify small molecule agonists of the peroxisome proliferator-activated receptor delta (PPARd) signaling pathway - cell viability counter screen (AID 743211); details: PPARd-bla HEK293H viability, CellTiter-Glo luminescence, 17 h; activity change, negative = cytotoxicity: at 62.6 µM (top of the series); also: nearly all actives have a fitted effect of over 55% in size
# Outline: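 PPARd-bla HEK293H cells (UAS-beta-lactamase reporter) were treated with compounds for 17 h at 37 C. Viability was then read in the same wells by CellTiter-Glo luminescence after 30 min at room temperature.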
# [14] = qHTS assay to identify small molecule antagonists of the peroxisome proliferator-activated receptor delta (PPARd) signaling pathway - cell viability counter screen (AID 743213); details: PPARd-bla HEK293H viability, CellTiter-Glo luminescence, 17 h; viability change, negative = cytotoxic: at 62 µM (top of the series) unless noted; also: nearly all actives have a fitted effect of over 50% in size
# Outline: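 HEK293H PPARd UAS-bla cells, 5 h pre-incubation, compound + L165041 300 nM final, 17 h 37 C; B/G FRET substrate 2 h RT; then CellTiter-Glo 30 min RT, luminescence.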
# [15] = biological target: Peroxisome proliferator-activated receptor delta (Homo sapiens) (UniProt Q03181); assay: qHTS assay to identify small molecule antagonists of the peroxisome proliferator-activated receptor delta (PPARd) signaling pathway (AID 743215; active = well fitted inhibition curve with a large enough effect in the signal ratio in the repeat runs, not every such curve was filed as active; inconclusive = weak or mixed curves, or effect the other way; inactive = no such curve, though single readings can be large or run the other way; the % refers to the signal ratio;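 also: cells stimulated with agonist L165041 at 300 nM final during compound exposure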); details: HEK293H PPARd-UAS-bla, beta-lactamase FRET ratio, antagonist, 17 h; ratio activity, negative = inhibition: at 62 µM (top of the series) unless noted
# Outline: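 With L165041 present at 300 nM final, compounds were incubated 17 h at 37 C on PPARd UAS-bla HEK293H cells. A FRET-based beta-lactamase substrate was then applied for 2 h at room temperature and fluorescence intensity recorded.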
# [16] = qHTS assay to identify small molecule agonists of the farnesoid-X-receptor (FXR) signaling pathway - cell viability counter screen (AID 743218); details: FXR-bla HEK293T viability, CellTiter-Glo luminescence, 16 h; viability change, negative = cytotoxic: at 62.6 µM (top of the series) unless noted; also: nearly all actives have a fitted effect of over 45% in size
# Outline: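 After 16 h at 37 C with test compounds, FXR-bla HEK 293T cells were given LiveBLAzer B/G substrate for 2 h at RT and then CellTiter-Glo; luminescence was taken after 30 min.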
# [17] = biological target: Vitamin D3 receptor (Homo sapiens) (UniProt P11473); assay: qHTS assay to identify small molecule antagonists of the vitamin D receptor (VDR) signaling pathway (AID 743223; active = well fitted inhibition curve with a large enough effect in the signal ratio in the repeat runs, not every such curve was filed as active; inconclusive = weak or mixed curves, or effect the other way; inactive = no such curve, though single readings can be large or run the other way; the % refers to the signal ratio); details: VDR-UAS-bla HEK293T, beta-lactamase FRET ratio, 16 h; activity change, negative = inhibition: at 61 µM (top of the series) unless noted
# Outline: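 VDR-bla cells were plated, incubated 4 h at 37C, then given compound and 1alpha,25-dihydroxyvitamin D3 (3 nM final). After 16 h at 37C, LiveBLAzer B/G FRET substrate was added for 2 h at room temperature and fluorescence read.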
# [18] = qHTS assay to identify small molecule antagonists of the peroxisome proliferator-activated receptor gamma (PPARg) signaling pathway - cell viability counter screen (AID 743194); details: PPARg-bla HEK293H viability, CellTiter-Glo luminescence, 17 h, co-treated with 50 nM rosiglitazone; activity change, negative = cytotoxicity: at 62.6 µM (top of the series); also: nearly all actives have a fitted effect of over 55% in size
# Outline: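 Cytotoxicity counter screen in PPARg-bla HEK293H cells, same wells as reporter assay. Compounds plus 50 nM rosiglitazone (final) for 17 h at 37 C, then viability read by CellTiter-Glo luminescence.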
# Potency is read from the fitted curve at half-maximal effect; tags tell the direction and shape of the fitted curve or compound fluorescence and quenching.
compound,measurement,setting,value
COc1cc(CNC(=O)CCCC/C=C/C(C)C)ccc1O,Potency,[1],inactive
same,Potency,[2],inactive
same,Potency,[3],"inconclusive: 60 µM [inhibitor, single point]"
same,Potency,[4],active: 47.3 µM
same,Potency,[5],inconclusive: 15.1 µM
same,"activity change, negative = inhibition",[6],inconclusive: 4.17%
same,Potency,[7],"inconclusive: 60 µM [rising, partial curve, poor fit]"
O=C1NC2CCCCN2C12CCN(CCCN1c3ccccc3CCc3ccc(Cl)cc31)CC2 (configuration not stated),Potency,[1],"inconclusive: 29.8 µM [cytotoxic, partial curve, poor fit]"
same,Potency,[8],active: 23.7 µM
same,Potency,[9],"inconclusive: 6.01 µM [rising, single point]"
same,Potency,[3],"inconclusive: 13.3 µM [rising, single point]"
same,Potency,[4],inconclusive: 33.5 µM
same,Potency,[10],active: 29.8 µM
same,Potency,[11],active: 29.8 µM
same,Potency,[12],inconclusive: 33.5 µM [single point]
same,Potency,[13],active: 29.8 µM
same,Potency,[5],"inconclusive: 13.3 µM [rising, partial curve]"
same,Potency,[14],active: 26.6 µM
same,Potency,[15],active: 29.8 µM
same,Potency,[6],inconclusive: 29.8 µM [partial curve]
same,Potency,[16],active: 23.7 µM
same,Potency,[17],inconclusive: 26.8 µM [single point]
CC(C)(O)c1coc(S(=O)(=O)NC(=O)Nc2c3c(cc4c2CCC4)CCC3)c1,Potency,[1],inactive
same,Potency,[2],"inconclusive: 15.4 µM [activator, single point]"
same,Potency,[3],inactive
same,Potency,[4],inactive
C=C[C@@]1(C)CC(=O)[C@]2(O)[C@@]3(C)[C@@H](O)CCC(C)(C)[C@@H]3[C@H](O)[C@H](OC(C)=O)[C@@]2(C)O1,Potency,[1],inconclusive: 68.6 µM [cytotoxic]
same,Potency,[2],"inconclusive: 21.7 µM [activator, partial curve, poor fit]"
same,"ratio activity, negative = inhibition",[3],inconclusive: 2.17% and inconclusive: 19.8%
same,Potency,[11],active: 24.5 µM
same,Potency,[13],"inconclusive: 6.92 µM [cytotoxic, full curve] and inconclusive: 7.5 µM [cytotoxic, full curve]"
same,Potency,[5],"inconclusive: 9.77 µM [rising, full curve, poor fit]"
same,Potency,[14],"active: 9.77 µM and inconclusive: 9.44 µM [cytotoxic, partial curve, poor fit]"
same,Potency,[15],"inconclusive: 0.245 µM [activator, full curve, poor fit]"
same,"ratio activity, negative = inhibition",[15],inconclusive: -4.25%
same,Potency,[16],active: 9.77 µM and active: 8.41 µM
same,Potency,[7],inactive
same,Potency,[17],"inconclusive: 0.0044 µM [activator, full curve, poor fit]"
same,"activity change, negative = inhibition",[17],inconclusive: 24.5%
O=C(N/N=C/c1ccccc1O)c1ccncc1,Potency,[1],"inconclusive: 7.5 µM [cytotoxic, partial curve, poor fit]"
same,Potency,[2],"inconclusive: 10.6 µM [activator, partial curve]"
same,Potency,[8],"inconclusive: 2.11 µM [falling, full curve]"
same,activation,[9],inconclusive: -12.5%
same,Potency,[3],"inconclusive: 1.5 µM [inhibitor, partial curve, poor fit]"
same,Potency,[4],"inconclusive: 0.596 µM [falling, partial curve, poor fit]"
same,Potency,[10],"inconclusive: 4.73 µM [cytotoxic, full curve]"
same,Potency,[11],"inconclusive: 2.37 µM [cytotoxic, full curve]"
same,Potency,[12],inconclusive: 2.11 µM
same,Potency,[13],"inconclusive: 0.944 µM [cytotoxic, full curve]"
same,Potency,[5],"inconclusive: 2.37 µM [rising, full curve, poor fit]"
same,Potency,[15],active: 2.11 µM
same,Potency,[6],"inconclusive: 3.76 µM [inhibitor, full curve]"
same,activation,[7],inconclusive: -19.2%
same,Potency,[17],active: 19 µM
O=C(O)Cc1cccc2ccccc12,Potency,[1],"inconclusive: 17.2 µM [rising, partial curve, poor fit]"
same,Potency,[8],"inconclusive: 27.3 µM [falling, partial curve, poor fit]"
same,Potency,[9],"inconclusive: 15.1 µM [activator, partial curve, poor fit] and active: 27.5 µM"
same,activation,[9],inconclusive: 19.4%
same,Potency,[3],"inconclusive: 38.9 µM [activator, partial curve, poor fit]"
same,Potency,[18],inconclusive: 19.5 µM [cytotoxic]
same,activation,[4],inconclusive: -11.2%
same,Potency,[11],"inconclusive: 21.9 µM [cytotoxic, single point]"
same,Potency,[5],"inconclusive: 61.6 µM [rising, partial curve, poor fit]"
same,Potency,[14],inactive
same,Potency,[15],"inconclusive: 1.23 µM [fluorescent, partial curve]"
same,Potency,[7],"inconclusive: 12.3 µM [rising, partial curve, poor fit]"
same,"activity change, negative = inhibition",[17],inconclusive: 14.3%
